{"source": "the supplement of paper PMC8728848", "binders": {"B1": {"name": "FliD (Clostridium difficile) (protein)", "chain": "MSSISPVRVTGLSGNFDMEGIIEASMIRDKEKVNKAKQDQQIVKWKQEIYRDIIKESKNLYDKYLNGDSPNSITNKKAYSATRITSSDESIIVAKGSAGAEKINYQFAVSQMAEPAKVTIKLNSSDPIVQQFPPNASGASSLNIGGVNIPISEQDTTSTIVSKINSLCADNDIRASYSEMTGELIISRKQTGSSSDIDLKVIGNDSLAGQIASDNGITFTTDASGTKSAVVYGKNLEADVTDDQGRVTHISKEQNSFKIDNIDYNVNSKGSAKLVSVTDTEEATKNMKAFVDDYNALMDKVYGLVTTKKSKDYPPLTDEQKDDMTTEEIEKWEKKAKEGILRNDDELRAFVEDIQSMFFGDADTIIALRKLGISEHENYNKKGQISFNADTFSKALIDDSDKVYKALAGYSSNYDDKGMFEKLKKIVFEYSGSSASKLTKKAGMENSSSASQNVYSKQIAEQERNISRLVEKMNDKEKRLYAKYSALESLLNKYSSQMNYFSQAQGN"}}, "assay_in_all_cases": "glycan array binding signal (z-score within array); higher = stronger binding", "conditions_in_all_cases": "glycan notation: IUPAC condensed, linker removed", "key": {"[1]": {"biological_target": "Gal(b1-3)GlcNAc(b1-3)Gal(b1-4)GlcNAc(b1-3)Gal(b1-4)GlcNAc(b1-2)[Gal(b1-3)GlcNAc(b1-3)Gal(b1-4)GlcNAc(b1-3)Gal(b1-4)GlcNAc(b1-6)]Man(a1-6)[Gal(b1-3)GlcNAc(b1-3)Gal(b1-4)GlcNAc(b1-3)Gal(b1-4)GlcNAc(b1-2)Man(a1-3)]Man(b1-4)GlcNAc(b1-4)[Fuc(a1-6)]GlcNAc", "procedure,_shortened": "(§1)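 The binding signal is a Z-score computed within each array and averaged over linkers. Arrays of the same protein sequence at different concentrations or buffers were also averaged together. Data originate from 3228 arrays in the Consortium for Functional Glycomics database, kept only where the protein sequence was available.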"}, "[2]": {"biological_target": "Gal(b1-3)GlcNAc(b1-3)Gal(b1-4)GlcNAc(b1-6)[Gal(b1-3)GlcNAc(b1-3)]Gal(b1-4)Glc", "procedure,_shortened": "as §1"}, "[3]": {"biological_target": "Gal(b1-3)GlcNAc(b1-3)Gal(b1-4)[Fuc(a1-3)]GlcNAc", "procedure,_shortened": "as §1"}, "[4]": {"biological_target": "Gal(b1-3)GlcNAc(b1-3)Gal(b1-4)[Fuc(a1-3)]GlcNAc(b1-6)[Gal(b1-3)GlcNAc(b1-3)]Gal(b1-4)Glc", "procedure,_shortened": "as §1"}, "[5]": {"biological_target": "Gal(b1-3)GlcNAc(b1-3)GalNAc", "procedure,_shortened": "as §1"}, "[6]": {"biological_target": "Gal(b1-3)GlcNAc(b1-6)Gal(b1-4)GlcNAc", "procedure,_shortened": "as §1"}, "[7]": {"biological_target": "Gal(b1-3)GlcNAc(b1-6)GalNAc", "procedure,_shortened": "as §1"}, "[8]": {"biological_target": "Gal(b1-3)GlcNAc(b1-6)[Gal(b1-3)]GalNAc", "procedure,_shortened": "as §1"}, "Gal(b1-3)GlcNAc6S": {"biological_target": "Gal(b1-3)GlcNAc6S", "procedure,_shortened": "as §1"}, "[9]": {"biological_target": "Gal(b1-3)[Fuc(a1-4)]GlcNAc", "procedure,_shortened": "as §1"}, "[10]": {"biological_target": "Gal(b1-3)[Fuc(a1-4)]GlcNAc(b1-2)Man", "procedure,_shortened": "as §1"}, "[11]": {"biological_target": "Gal(b1-3)[Fuc(a1-4)]GlcNAc(b1-2)Man(a1-3)[Gal(b1-3)[Fuc(a1-4)]GlcNAc(b1-2)Man(a1-6)]Man(b1-4)GlcNAc(b1-4)[Fuc(a1-6)]GlcNAc", "procedure,_shortened": "as §1"}, "[12]": {"biological_target": "Gal(b1-3)[Fuc(a1-4)]GlcNAc(b1-3)Gal(b1-3)[Fuc(a1-4)]GlcNAc", "procedure,_shortened": "as §1"}, "[13]": {"biological_target": "Gal(b1-3)[Fuc(a1-4)]GlcNAc(b1-3)Gal(b1-4)[Fuc(a1-3)]GlcNAc", "procedure,_shortened": "as §1"}, "[14]": {"biological_target": "Gal(b1-3)[Fuc(a1-4)]GlcNAc(b1-6)GalNAc", "procedure,_shortened": "as §1"}, "[15]": {"biological_target": "Gal(b1-3)[GlcNAc(b1-6)]GalNAc", "procedure,_shortened": "as §1"}, "[16]": {"biological_target": "Gal(b1-3)[Neu5Ac(a2-6)]GalNAc", "procedure,_shortened": "as §1"}, "[17]": {"biological_target": "Gal(b1-3)[Neu5Ac(a2-6)]GlcNAc(b1-4)Gal(b1-4)Glc", "procedure,_shortened": "as §1"}, "[18]": {"biological_target": "Gal(b1-3)[Neu5Ac(b2-6)]GalNAc", "procedure,_shortened": "as §1"}, "Gal(b1-4)Gal": {"biological_target": "Gal(b1-4)Gal", "procedure,_shortened": "as §1"}, "[19]": {"biological_target": "Gal(b1-4)GalNAc(a1-3)[Fuc(a1-2)]Gal(b1-4)GlcNAc", "procedure,_shortened": "as §1"}, "[20]": {"biological_target": "Gal(b1-4)GalNAc(b1-3)[Fuc(a1-2)]Gal(b1-4)GlcNAc", "procedure,_shortened": "as §1"}, "Gal(b1-4)Glc": {"biological_target": "Gal(b1-4)Glc", "procedure,_shortened": "as §1"}, "Gal(b1-4)Glc6S": {"biological_target": "Gal(b1-4)Glc6S", "procedure,_shortened": "as §1"}, "Gal(b1-4)GlcNAc": {"biological_target": "Gal(b1-4)GlcNAc", "procedure,_shortened": "as §1"}, "[21]": {"biological_target": "Gal(b1-4)GlcNAc(a1-6)Gal(b1-4)GlcNAc", "procedure,_shortened": "as §1"}, "Gal(b1-4)GlcNAc(b1-2)Man": {"biological_target": "Gal(b1-4)GlcNAc(b1-2)Man", "procedure,_shortened": "as §1"}, "[22]": {"biological_target": "Gal(b1-4)GlcNAc(b1-2)Man(a1-3)Man(b1-4)GlcNAc(b1-4)GlcNAc", "procedure,_shortened": "as §1"}, "[23]": {"biological_target": "Gal(b1-4)GlcNAc(b1-2)Man(a1-3)[Gal(b1-4)GlcNAc(b1-2)Man(a1-6)]Man(b1-4)GlcNAc(b1-4)GlcNAc", "procedure,_shortened": "as §1"}, "[24]": {"biological_target": "Gal(b1-4)GlcNAc(b1-2)Man(a1-3)[Gal(b1-4)GlcNAc(b1-2)Man(a1-6)]Man(b1-4)GlcNAc(b1-4)[Fuc(a1-6)]GlcNAc", "procedure,_shortened": "as §1"}, "[25]": {"biological_target": "Gal(b1-4)GlcNAc(b1-2)Man(a1-3)[Gal(b1-4)GlcNAc(b1-2)Man(a1-6)][Gal(b1-4)GlcNAc(b1-4)]Man(b1-4)GlcNAc(b1-4)[Fuc(a1-6)]GlcNAc", "procedure,_shortened": "as §1"}, "[26]": {"biological_target": "Gal(b1-4)GlcNAc(b1-2)Man(a1-3)[Gal(b1-4)GlcNAc(b1-2)Man(a1-6)][GlcNAc(b1-4)]Man(b1-4)GlcNAc(b1-4)[Fuc(a1-6)]GlcNAc", "procedure,_shortened": "as §1"}, "[27]": {"biological_target": "Gal(b1-4)GlcNAc(b1-2)Man(a1-3)[GlcNAc(b1-2)Man(a1-6)]Man(b1-4)GlcNAc(b1-4)GlcNAc", "procedure,_shortened": "as §1"}, "[28]": {"biological_target": "Gal(b1-4)GlcNAc(b1-2)Man(a1-3)[GlcNAc(b1-4)][Gal(b1-4)GlcNAc(b1-2)Man(a1-6)]Man(b1-4)GlcNAc(b1-4)GlcNAc", "procedure,_shortened": "as §1"}, "[29]": {"biological_target": "Gal(b1-4)GlcNAc(b1-2)Man(a1-3)[Man(a1-6)]Man(b1-4)GlcNAc(b1-4)GlcNAc", "procedure,_shortened": "as §1"}, "[30]": {"biological_target": "Gal(b1-4)GlcNAc(b1-2)Man(a1-6)Man(b1-4)GlcNAc(b1-4)GlcNAc", "procedure,_shortened": "as §1"}, "[31]": {"biological_target": "Gal(b1-4)GlcNAc(b1-2)Man(a1-6)[GlcNAc(b1-2)Man(a1-3)]Man(b1-4)GlcNAc(b1-4)GlcNAc", "procedure,_shortened": "as §1"}, "[32]": {"biological_target": "Gal(b1-4)GlcNAc(b1-2)Man(a1-6)[Man(a1-3)]Man(b1-4)GlcNAc(b1-4)GlcNAc", "procedure,_shortened": "as §1"}}, "note": "The list shows a part of the results.", "data": [{"binder": "B1", "values": [{"measurement": "glycan array binding signal (z-score)", "setting": "[1]", "result": 0.088}, {"measurement": "glycan array binding signal (z-score)", "setting": "[2]", "result": -0.185}, {"measurement": "glycan array binding signal (z-score)", "setting": "[3]", "result": -0.209}, {"measurement": "glycan array binding signal (z-score)", "setting": "[4]", "result": -0.232}, {"measurement": "glycan array binding signal (z-score)", "setting": "[5]", "result": -0.17}, {"measurement": "glycan array binding signal (z-score)", "setting": "[6]", "result": 0.007}, {"measurement": "glycan array binding signal (z-score)", "setting": "[7]", "result": -0.222}, {"measurement": "glycan array binding signal (z-score)", "setting": "[8]", "result": -0.126}, {"measurement": "glycan array binding signal (z-score)", "setting": "Gal(b1-3)GlcNAc6S", "result": -0.148}, {"measurement": "glycan array binding signal (z-score)", "setting": "[9]", "result": -0.011}, {"measurement": "glycan array binding signal (z-score)", "setting": "[10]", "result": -0.109}, {"measurement": "glycan array binding signal (z-score)", "setting": "[11]", "result": 0.269}, {"measurement": "glycan array binding signal (z-score)", "setting": "[12]", "result": -0.253}, {"measurement": "glycan array binding signal (z-score)", "setting": "[13]", "result": -0.226}, {"measurement": "glycan array binding signal (z-score)", "setting": "[14]", "result": -0.08}, {"measurement": "glycan array binding signal (z-score)", "setting": "[15]", "result": -0.239}, {"measurement": "glycan array binding signal (z-score)", "setting": "[16]", "result": -0.243}, {"measurement": "glycan array binding signal (z-score)", "setting": "[17]", "result": -0.186}, {"measurement": "glycan array binding signal (z-score)", "setting": "[18]", "result": -0.249}, {"measurement": "glycan array binding signal (z-score)", "setting": "Gal(b1-4)Gal", "result": 0.115}, {"measurement": "glycan array binding signal (z-score)", "setting": "[19]", "result": -0.249}, {"measurement": "glycan array binding signal (z-score)", "setting": "[20]", "result": -0.247}, {"measurement": "glycan array binding signal (z-score)", "setting": "Gal(b1-4)Glc", "result": -0.175}, {"measurement": "glycan array binding signal (z-score)", "setting": "Gal(b1-4)Glc6S", "result": -0.106}, {"measurement": "glycan array binding signal (z-score)", "setting": "Gal(b1-4)GlcNAc", "result": -0.221}, {"measurement": "glycan array binding signal (z-score)", "setting": "[21]", "result": -0.083}, {"measurement": "glycan array binding signal (z-score)", "setting": "Gal(b1-4)GlcNAc(b1-2)Man", "result": 0.089}, {"measurement": "glycan array binding signal (z-score)", "setting": "[22]", "result": -0.137}, {"measurement": "glycan array binding signal (z-score)", "setting": "[23]", "result": -0.143}, {"measurement": "glycan array binding signal (z-score)", "setting": "[24]", "result": -0.22}, {"measurement": "glycan array binding signal (z-score)", "setting": "[25]", "result": -0.238}, {"measurement": "glycan array binding signal (z-score)", "setting": "[26]", "result": -0.23}, {"measurement": "glycan array binding signal (z-score)", "setting": "[27]", "result": -0.236}, {"measurement": "glycan array binding signal (z-score)", "setting": "[28]", "result": -0.235}, {"measurement": "glycan array binding signal (z-score)", "setting": "[29]", "result": -0.11}, {"measurement": "glycan array binding signal (z-score)", "setting": "[30]", "result": -0.233}, {"measurement": "glycan array binding signal (z-score)", "setting": "[31]", "result": -0.227}, {"measurement": "glycan array binding signal (z-score)", "setting": "[32]", "result": -0.108}]}]}
